In PMC4336329 (PLoS ONE, 2015):
Out of some 310,000 compounds screened, about 2,200 (0.71%) showed an effect of 50% or more. Effects have a minus sign here. This is one part of the list.

Each compound was assayed against human ether-à-go-go-related gene (hERG) potassium channel (human, UniProt Q12809) (assay: primary screen, population patch clamp on CHO cells stably expressing hERG).
human ether-à-go-go-related gene (hERG) potassium channel, sequence (Q12809 whole entry, looked up): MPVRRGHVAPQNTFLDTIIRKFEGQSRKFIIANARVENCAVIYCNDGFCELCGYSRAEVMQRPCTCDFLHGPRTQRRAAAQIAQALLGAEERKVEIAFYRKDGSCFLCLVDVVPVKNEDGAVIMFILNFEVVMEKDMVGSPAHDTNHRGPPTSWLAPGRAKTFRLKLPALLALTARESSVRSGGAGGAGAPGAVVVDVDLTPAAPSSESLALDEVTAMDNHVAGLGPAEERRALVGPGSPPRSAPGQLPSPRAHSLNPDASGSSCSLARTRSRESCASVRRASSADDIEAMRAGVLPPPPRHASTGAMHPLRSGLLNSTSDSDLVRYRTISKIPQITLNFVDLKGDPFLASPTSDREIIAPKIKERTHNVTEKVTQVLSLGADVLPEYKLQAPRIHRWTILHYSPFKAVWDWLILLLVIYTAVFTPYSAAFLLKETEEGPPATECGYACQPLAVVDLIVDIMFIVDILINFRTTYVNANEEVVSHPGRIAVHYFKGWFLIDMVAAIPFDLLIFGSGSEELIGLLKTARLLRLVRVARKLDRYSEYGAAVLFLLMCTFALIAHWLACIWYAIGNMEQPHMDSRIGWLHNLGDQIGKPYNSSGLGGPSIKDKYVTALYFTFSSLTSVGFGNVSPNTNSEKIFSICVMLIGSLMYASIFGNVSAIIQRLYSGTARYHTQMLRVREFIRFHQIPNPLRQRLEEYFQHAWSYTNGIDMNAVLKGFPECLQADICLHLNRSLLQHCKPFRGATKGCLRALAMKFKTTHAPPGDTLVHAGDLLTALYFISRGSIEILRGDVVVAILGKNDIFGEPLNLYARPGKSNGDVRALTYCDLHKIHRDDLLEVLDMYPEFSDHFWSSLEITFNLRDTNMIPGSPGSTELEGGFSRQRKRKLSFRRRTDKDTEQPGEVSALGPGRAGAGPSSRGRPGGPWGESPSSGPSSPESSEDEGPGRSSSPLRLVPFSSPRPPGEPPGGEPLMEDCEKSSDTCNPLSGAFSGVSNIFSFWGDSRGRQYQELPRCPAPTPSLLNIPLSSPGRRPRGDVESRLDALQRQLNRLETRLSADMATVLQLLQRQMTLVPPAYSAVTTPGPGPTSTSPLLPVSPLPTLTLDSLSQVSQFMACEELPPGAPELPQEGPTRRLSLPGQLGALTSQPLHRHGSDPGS

Point of comparison: `O=C(Nc1nnc(-c2ccccc2)o1)c1cccc(N2C(=O)CCC2=O)c1`, “hERG current change (%, negative = inhibition) at 1uM” value 3.4%. Against it:
- O=C(CC(=O)N/N=C/c1ccc(Cl)cc1Cl)NCc1ccccc1 — lower, 2.74%
- Cn1cccc1C(=O)NCc1ccc(Cl)cc1 — higher, 10.2%
- CCOC(=O)N1CCN(C(=O)c2ccc3nc(SCc4ccc(F)cc4)n(C)c3c2)CC1 — lower, -2.71%
- CNC(=O)c1ccc(NC(=O)Cc2ccc(S(=O)(=O)N3CCOCC3)s2)cc1 — higher, 15.6%
- COc1cc(C(=O)NCC2CCCCC2)cc(OC)c1OC — lower, -18.8%
- COc1cccc(/C=N/NC(=O)c2[nH]c(C)c(C(=O)N/N=C/c3cccc(OC)c3O)c2C)c1O — higher, 11.9%
- CCOC(=O)c1sc(NC(=O)c2cc(-c3ccccc3)nc3ccccc23)c(C#N)c1C — higher, 16.7%
- CCCN(CCC)CCNC(=O)C1c2ccccc2C(=O)N2CCc3ccccc3C12 (stereo not drawn) — lower, 0.0598%
- CCCCOc1ccc(CC(=O)NCC(=O)O)cc1 — higher, 6.2%
- CCOC(=O)c1c(NC(=O)Cn2cc([N+](=O)[O-])cn2)sc2c1CCC2 — higher, 4.74%
- Cc1csc2ncnc(NC3CCN(Cc4ccccc4)CC3)c12 — lower, -35.4%
- Cc1nc(C)c(-c2ccc(SCC(=O)Nc3cccc(F)c3)nn2)s1 — higher, 11.7%
- Cc1ccc(S(=O)(=O)/N=C(/Nc2cccc3ccccc23)c2ccc(F)cc2)cc1 — higher, 11.9%
- CC(=O)Nc1c(C(=O)N2CCCCCC2)cnn1-c1ccccc1Cl — higher, 13.4%
- Cc1ccnc(NC(=O)c2ccc(S(=O)(=O)N3CCC(C)CC3)cc2)c1 — lower, 3.14%
- O=C(c1cc(Sc2cccc(Cl)c2)nc2ccccc12)N1CCN(c2ccccn2)CC1 — higher, 8.49%
- CCCN(CC(=O)Nc1ccccc1C)C(=O)c1ccc(N2CCCC2=O)cc1 — higher, 10.1%
- CCCC(C)NC(=O)c1cc(S(=O)(=O)N2CCCCCC2)ccc1OC (stereo not drawn) — lower, -15%
- CC1CCCN(CCCNC(=O)c2ccc(NC(=O)C3=CSCCO3)cc2)C1 (stereo not drawn) — higher, 14.5%
- COc1ccc(-c2nnn(CC(=O)NC3CCCc4ccccc43)n2)cc1OC (stereo not drawn) — higher, 16.9%
- NNC(=O)C=C1CCN(c2ncc(C(F)(F)F)cc2Cl)CC1 — higher, 8.75%
- O=C(CCN1CCCCC1)N=Nc1c(O)[nH]c2ccccc12 — higher, 10.4%
- CCOc1ccccc1N(CC(=O)OC)S(=O)(=O)c1ccccc1 — higher, 5.24%
- CNS(=O)(=O)c1cc(N(C)S(=O)(=O)c2ccc(C)cc2)c(C)cc1C — lower, -2.79%
- O=C(COC(=O)C1CC2C=CC1C2)NCCc1ccccc1 (stereo not drawn) — higher, 14.9%
- CC(CC1CC(C)(C)OC1=O)C(=O)Nc1nncs1 (stereo not drawn) — higher, 6.85%
- COc1ccc(OCCOC(=O)c2cccc(-n3cnnn3)c2)cc1 — lower, 2.3%
- OCCNc1nc(Nc2ccccc2OC(F)(F)F)nc(N2CCCC2)n1 — higher, 13%
- CCn1nc(C)c(CCC(=O)O)c1C — higher, 8.42%
- CCOc1ccc(CCNC(=O)CCS(=O)(=O)c2ccc(OC)cc2)cc1OCC — lower, -0.56%
- COc1ccc(S(=O)(=O)Nc2cc(C(=O)NC(C)C)ccc2N2CCOCC2)cc1 — higher, 7.51%
- Cc1c(N=Nc2c(O)[nH]c(=S)[nH]c2=O)c(=O)n(-c2ccccc2)n1C — higher, 12.6%
- Cc1ccc(-n2cnn(-c3ccc([N+](=O)[O-])cc3[N+](=O)[O-])c2=O)cc1 — higher, 13%
- CC(NC(=O)CN1C(=O)c2ccccc2C1=O)c1ccccc1 (stereo not drawn) — higher, 6.37%
- O=C(c1cc(=O)[nH]c2ccccc12)N1CCN(S(=O)(=O)c2ccc3ccccc3c2)CC1 — higher, 12.4%
- C=CCOc1ccc(/C=C/C(=O)OCC(=O)Nc2c(C)n(C)n(-c3ccccc3)c2=O)cc1 — lower, 1.63%
- O=C(COC(=O)c1ncc(Cl)c(Cl)c1Cl)NNC(=O)c1ccccc1 — higher, 14.6%
- Nc1ccc(S(=O)(=O)Nc2ccccn2)cc1 — higher, 14.1%
- Cc1cc2c(cc(C(=O)OCC(=O)NCc3ccco3)n2C)s1 — higher, 6.5%
- Cc1cc(Cl)ccc1N=c1ssnc1Cl — higher, 13.5%
- Cc1ccc(C(=O)N(Cc2cccs2)C2CCS(=O)(=O)C2)cc1 (stereo not drawn) — higher, 16.6%
- COc1cccc(/C=C2/C(=O)NN(c3ccc(Br)cc3)C2=O)c1O — higher, 12.6%
- O=C(Nc1cccc(Cl)c1N1CCCC1)c1ccc(Br)o1 — lower, -5.81%
- COc1cc(CNc2ccc3[nH]c(=O)[nH]c3c2)ccc1OCc1ccc(F)cc1Cl — higher, 5.61%
- CCN(CC)S(=O)(=O)c1ccc2c(c1)nc(CCC(=O)Nc1cccc(C(F)(F)F)c1)n2CC — higher, 10.8%
- O=C(CSc1cn[nH]n1)Nc1ccccc1F — higher, 4.01%
- Cc1occc1C(=O)N1CCN(c2ccccc2)CC1 — higher, 3.49%
- CN1CCN(C(=O)c2ccc(CNS(=O)(=O)c3ccc(F)c(Cl)c3)cc2)CC1 — lower, 2.45%
- O=C(NCc1ccco1)C1CCCN(S(=O)(=O)Cc2ccccc2)C1 (stereo not drawn) — higher, 13.5%
- COc1ccc(OC)c(/C=C/C(=O)OCC(=O)Nc2nnc(-c3ccccc3)o2)c1 — higher, 7.49%
- C=CCNC(=S)N1CCC(Cc2ccccc2)CC1 — higher, 4.99%
- COc1ccc(C2C(C(=O)C(C)(C)C)=C(O)C(=O)N2Cc2ccccc2)cc1 (stereo not drawn) — higher, 13.1%
- CC(NC(=O)CSc1nc2c(c(C(F)(F)F)n1)CCc1ccccc1-2)c1ccccc1 (stereo not drawn) — higher, 6%
- Cc1cc(=O)[nH]c(SCC(=O)c2ccc3c(c2)NC(=O)CO3)n1 — higher, 8.59%
- O=C(Oc1ccc(Br)cc1)c1cccnc1 — higher, 5.97%
- O=C(NCc1ccc(Cl)cc1)C1CCCN1C(=O)Nc1ccc(F)cc1 (stereo not drawn) — lower, -1.75%
- CCn1c(O)c(/C=C2\C=Nc3ccccc32)sc1=Nc1ccc(C)cc1 — lower, 1.23%
- COc1ccccc1N1CCN(C(=O)CCc2c[nH]c3ccccc23)CC1 — lower, -1.67%
- COc1ccc(S(=O)(=O)N(CC(=O)N2CCCCCC2)c2ccccc2OC)cc1 — lower, -5.65%
- O=P(COCCOCCOCCOCP(=O)(c1ccccc1)c1ccccc1)(c1ccccc1)c1ccccc1 — higher, 5.55%
- O=C(Cc1ccccc1)Nc1ccc(CN2CCOCC2)cc1 — lower, 2.59%
- COC(=O)N/N=C\c1ccc(OC(=O)c2ccco2)cc1 — higher, 8.37%
- CCn1cc(C2C3=C(CC(C)(C)CC3=O)N(c3ccccc3)C3=C2C(=O)CC(C)(C)C3)c(C)n1 — higher, 9.4%
- Cc1cc(C)cc(NC(=O)NC2CCN(CC(=O)Nc3cccc(Cl)c3C)CC2)c1 — higher, 5.76%
- CS(=O)(=O)c1ccc(Cl)c(NC(=O)c2cc(S(=O)(=O)N3CCOCC3)ccc2N2CCCC2)c1 — lower, -60.2%
- CC1CC(C)CN(CCCNC(=O)Cc2c(C(=O)O)n(C)c3ccccc23)C1 (stereo not drawn) — lower, -4.82%
- Cc1ccc(S(=O)(=O)N2CCC(C(=O)N3CCC(C(=O)NCc4cccnc4)CC3)CC2)cc1 — higher, 5.95%
- Cc1ccc(S(=O)(=O)NCC(=O)OCc2ccccc2)cc1 — higher, 10.1%
- O=C(NCC(c1ccco1)N1CCN(c2ccccc2)CC1)c1cccs1 (stereo not drawn) — lower, 1.74%
- CCOc1ccc(C(=O)NCC(=O)OCCCC(=O)c2ccc(F)cc2)cc1OCC — higher, 3.6%
- CCOc1ccc(NC(=S)N2CCN(S(=O)(=O)c3ccc(OC)cc3)CC2)cc1 — higher, 10.3%
- CC(=O)N1CCSc2ccc(S(=O)(=O)NCc3ccc(F)cc3)cc21 — lower, -1.41%
- CCOC(=O)C1CCCCN1Cc1cccc(OCc2ccccc2)c1.O=C(O)C(=O)O (stereo not drawn) — higher, 12.5%
- CCOC(=O)N/N=C(\C)c1ccc(OC(F)F)cc1OC(F)F — higher, 5.66%
- OC1CCN(c2c3c(nc4cc(-c5cccc(F)c5)nn24)CCCC3)CC1 — higher, 4%
- CCSCc1nnc(SCC(=O)c2ccc(OC)cc2)n1C — lower, 2.03%
- COCc1nc2c([nH]1)c(=O)n(C)c(=O)n2CC(C)C — lower, -5.58%
- O=C(Nc1cc([N+](=O)[O-])ccc1N1CCCC1)c1ccccc1 — lower, 2.67%
- CCc1ccccc1NC(=O)CSc1nc2c(c(-c3ccco3)c1C#N)CCCC2 — higher, 21.9%
- Cc1c(C(=O)NCCN2CCOCC2)oc2ccccc12 — higher, 9.09%
- COc1ccc(C2(O)CN(c3ccccc3)C3=[N+]2CCS3)cc1OC.[Br-] (stereo not drawn) — higher, 5.45%
- CCOc1ccc(NC(=S)Nc2ccc3nsnc3c2)cc1 — lower, -0.48%
- CCN(CC)C(=O)c1sc(N)c(C#N)c1C — higher, 11.4%
- O=C(O)c1ccc(N=Nc2c(O)[nH]c3cc(Cl)ccc23)cc1 — higher, 10.6%
- CC(=O)c1ccc(NC(=O)CN2CCC(C(=O)c3ccc4c(c3)OCCO4)CC2)cc1 — lower, 1.1%
- CCN(CC)S(=O)(=O)c1ccc(Cl)c(NC(=O)COc2ccccc2[N+](=O)[O-])c1 — higher, 7.69%
